# Values joined by “and” are separate entries in the source; they are usually repeats but may differ in a detail not shown here. Equal entries are not always repeated. The list shows a part of the results. Further columns of the screen follow, without active or inactive calls. The list favours compounds with an active or inconclusive main result.
# Assay: qHTS Assay for Lipid Storage Modulators (AID 1519)
# Settings: Drosophila S3 cells, BODIPY lipid droplet/cell ratio, laser cytometry, cells loaded with oleic acid
# Outline: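 Cells seeded at 5,000 per well were treated with compounds over a concentration series and loaded with oleic acid (400 uM, as added). Lipid droplet fluorescence (488 nm excitation, 500-530 nm channel) was read by laser-scanning cytometry and normalized to 20 uM Triacsin C.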
# [1] = measured here: cell count channel max response
# [2] = measured here: lipid channel max response
SMILES,max response [1],max response [2]
NCCC(=O)NCCc1cnc[nH]1,44.2%,46.1%
NC1CCN(O)C1=O (centres undefined),43.4%,46.1%
CC[N+](CC)(CC)CCOc1ccc(/C=C\c2ccccc2)cc1,25.2%,-19.1%
O=C1N=C(O)CN1/N=C\c1ccc(-c2ccc([N+](=O)[O-])cc2)o1,67.3%,86.2%
[Li+],51.8%,55.2%
Nc1ccc(S(=O)(=O)Nc2ccnn2-c2ccccc2)cc1,44.8%,45.9%
COc1ccc2[nH]cc(CCNc3ccnc(-c4ccc(N(C)C)cc4)n3)c2c1,-48.8%,-92.4%
C[N+](C)(C)CCCCCCCCCC[N+](C)(C)C,44.8%,44.5%
N[C@@H](Cc1cc(CP(=O)(O)O)cc(-c2ccccc2Cl)c1)C(=O)O,28.7%,32.4%
O=c1oc2c(O)c(O)cc3c(=O)oc4c(O)c(O)cc1c4c23,8.02%,8.92%
NCCCCCCCCCCNS(=O)(=O)c1cccc2c(Cl)cccc12,-0.0289%,-86.1%
CC1(C)C(=O)C=C[C@]2(C)C1CC(=O)[C@]1(C)C2CC[C@@]2(C)C(c3ccoc3)OC(=O)C3O[C@@]321 (some centres undefined),-5.72%,-26.2%
C#CC(N)CCC(=O)O (centres undefined),48.8%,48.5%
COCCOC(=O)C1=C(C)NC(C)=C(C(=O)OC(C)C)[C@@H]1c1cccc([N+](=O)[O-])c1,56.7%,72.1%
C=CCc1ccccc1OCC(O)CNC(C)C (centres undefined),54.7%,55.8%
CC(C)(C)NCC(O)COc1nsnc1N1CCOCC1 (centres undefined),36.5%,33.8%
C=CC(N)CCC(=O)O (centres undefined),31.6%,32.4%
CCCCCCCCCCC/C=C\C(C)(C)/C=C\CCCC(=O)O,45.3%,48.5%
CC(C)NC[C@H](O)COc1ccc(CC(N)=O)cc1,57.6% and 37.9%,55.8% and 41.9%
O=c1cc(-c2ccccc2O)oc2c1ccc1ccccc12,63.6%,85.9%
OC[C@H]1NC[C@@H](O)[C@@H]1O,36.7%,40.6%
CC(=O)SCC[N+](C)(C)C,57.7%,58%
Nc1cc(Cl)c(NC2=NCCN2)c(Cl)c1,43.2%,42.9%
O=C(O)c1cc(=O)c2ccc(Cl)cc2[nH]1,54.1%,42.9%

SMILES,max response [1],max response [2]
N[C@H](C(=O)O)[C@H](O)C(=O)O,23.9%,32.2%
CN1C2CCC1CC(OC(=O)C(O)c1ccccc1)C2 (centres undefined),50%,50.8%
CN[C@H](CC(=O)O)C(=O)O,51.3%,51.8%
CN1CCN(c2ncc3nc(-c4cccs4)c(=O)n(Cc4ccc(F)cc4)c3n2)CC1,28.2%,-14.9%
O=c1cc(-c2ccccc2)oc2cc(O[C@@H]3O[C@H](CO)[C@@H](O)[C@H](O)[C@H]3O)c(O)c(O)c12,14.9%,23.8%
CC(=O)Nc1nnc(S(N)(=O)=O)s1,57.7%,55.3%
CC(C)NC[C@H](O)COc1cccc2[nH]ccc12,69.9%,73.1%
O=c1cnc2cnc(Nc3ccccc3)nc2n1C[C@H]1CCCO1,-6.28%,-59.7%
CCCOC(=O)c1c(-c2ccccc2)nc(CC)c(C(=O)SCC)c1CCC,48.6%,49.6%
NCCSSCCN,50.2%,49.6%
CCCC(=O)NCCc1c2n(c3ccc(OC)cc13)Cc1ccccc1-2,-66.9%,-68.6%
CN=C(NC#N)NCCSCc1nc[nH]c1C,48.8%,43.3%
OC[C@H]1O[C@@H](n2cnc3c(NCc4ccccc4)ncnc32)[C@H](O)[C@@H]1O,51.2%,68.8%
COc1cc(/C=C/C(=O)/C=C(O)/C=C/c2ccc(O)c(OC)c2)ccc1O,15.3%,-20.1%
Cn1cccc1C(=O)N1CCC2(CCCN(c3cccc(-c4ccccc4)c3)C2)CC1,24.3%,-37.6%
CCn1c(=O)[nH]c2ccccc21,30.7%,38.4%
C1CCN2CC3CC(CN4CCCC[C@@H]34)C2C1 (some centres undefined),-2.25%,-0.575%
COc1ccc(C(=O)N2CCC3(CCCN(c4ccc(-c5ccccc5)cc4)C3)CC2)cc1,10.5%,-92.3%
NC/C=C/C(=O)O,49.3%,53.2%
CN(C(=O)c1c(O)c2ccccc2n(C)c1=O)c1ccccc1,55.9%,65.8%
N[C@H](C(=O)O)c1cccc(O)c1,25.9%,29.3%
NCC(O)(CS(=O)(=O)O)c1ccc(Cl)cc1 (centres undefined),34.7%,32%
C[C@@H]1c2ccccc2CN1CC1=NCCN1,64.7%,92%

# Source: PubChem BioAssay (NCATS)
